Where a chain is given by its changes, count along the chain named. The list shows a part of the results.
T1: RBFOX1 RRM (Homo sapiens, UniProt Q9NWB1 109-208)
T1 sequence: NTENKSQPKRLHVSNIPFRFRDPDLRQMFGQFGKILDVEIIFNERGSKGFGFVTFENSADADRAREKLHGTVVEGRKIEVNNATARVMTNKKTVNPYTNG

B1: CUCCUCC (DNA:RNA)
RNA: GGGAGACCGGAAUUCAGAUUGUCCCUCCUCCUUAAAUCCCGUCGUAGCCACCA
DNA 1: CAATCTGAATTCCGGTCTCCC
DNA 2: TGGTGGCTACGACGGGATT
B2: UCCUAGC (DNA:RNA)
RNA: B1 RNA with C25U, U26C, C28U, U29A, C30G
DNA 1: CAATCTGAATTCCGGTCTCCC
DNA 2: TGGTGGCTACGACGGGATT
B3: CUACAAG (DNA:RNA)
RNA: B1 RNA with C27A, U29A, C30A, C31G
DNA 1: CAATCTGAATTCCGGTCTCCC
DNA 2: TGGTGGCTACGACGGGATT
B4: ACAGCUA (DNA:RNA)
RNA: GGGAGACCGGAAUUCAGAUUGUCCACAGCUAUUAAAUCCCGUCGUAGCCACCA
DNA 1: CAATCTGAATTCCGGTCTCCC
DNA 2: TGGTGGCTACGACGGGATT
B5: CCAAGAU (DNA:RNA)
RNA: B4 RNA with A25C, G28A, C29G, U30A, A31U
DNA 1: CAATCTGAATTCCGGTCTCCC
DNA 2: TGGTGGCTACGACGGGATT
B6: GGAAGUA (DNA:RNA)
RNA: B4 RNA with A25G, C26G, G28A, C29G
DNA 1: CAATCTGAATTCCGGTCTCCC
DNA 2: TGGTGGCTACGACGGGATT
B7: AAUUAAA (DNA:RNA)
RNA: B4 RNA with C26A, A27U, G28U, C29A, U30A
DNA 1: CAATCTGAATTCCGGTCTCCC
DNA 2: TGGTGGCTACGACGGGATT
B8: GUUGCGU (DNA:RNA)
RNA: B4 RNA with A25G, C26U, A27U, U30G, A31U
DNA 1: CAATCTGAATTCCGGTCTCCC
DNA 2: TGGTGGCTACGACGGGATT
B9: GACACCA (DNA:RNA)
RNA: B4 RNA with A25G, C26A, A27C, G28A, U30C
DNA 1: CAATCTGAATTCCGGTCTCCC
DNA 2: TGGTGGCTACGACGGGATT
B10: CUCCUCG (DNA:RNA)
RNA: B1 RNA with C31G
DNA 1: CAATCTGAATTCCGGTCTCCC
DNA 2: TGGTGGCTACGACGGGATT
B11: GAUAUGU (DNA:RNA)
RNA: B1 RNA with C25G, U26A, C27U, C28A, C30G, C31U
DNA 1: CAATCTGAATTCCGGTCTCCC
DNA 2: TGGTGGCTACGACGGGATT
B12: UGCACCG (DNA:RNA)
RNA: B1 RNA with C25U, U26G, C28A, U29C, C31G
DNA 1: CAATCTGAATTCCGGTCTCCC
DNA 2: TGGTGGCTACGACGGGATT
B13: GCCUUUG (DNA:RNA)
RNA: B4 RNA with A25G, A27C, G28U, C29U, A31G
DNA 1: CAATCTGAATTCCGGTCTCCC
DNA 2: TGGTGGCTACGACGGGATT
B14: GAGCUGU (DNA:RNA)
RNA: B1 RNA with C25G, U26A, C27G, C30G, C31U
DNA 1: CAATCTGAATTCCGGTCTCCC
DNA 2: TGGTGGCTACGACGGGATT
B15: CAAAUGA (DNA:RNA)
RNA: B4 RNA with A25C, C26A, G28A, C29U, U30G
DNA 1: CAATCTGAATTCCGGTCTCCC
DNA 2: TGGTGGCTACGACGGGATT
B16: CGUGUCG (DNA:RNA)
RNA: B1 RNA with U26G, C27U, C28G, C31G
DNA 1: CAATCTGAATTCCGGTCTCCC
DNA 2: TGGTGGCTACGACGGGATT
B17: AGGACUU (DNA:RNA)
RNA: B4 RNA with C26G, A27G, G28A, A31U
DNA 1: CAATCTGAATTCCGGTCTCCC
DNA 2: TGGTGGCTACGACGGGATT
B18: GUAUCAU (DNA:RNA)
RNA: B4 RNA with A25G, C26U, G28U, U30A, A31U
DNA 1: CAATCTGAATTCCGGTCTCCC
DNA 2: TGGTGGCTACGACGGGATT
B19: AUAUUCA (DNA:RNA)
RNA: B4 RNA with C26U, G28U, C29U, U30C
DNA 1: CAATCTGAATTCCGGTCTCCC
DNA 2: TGGTGGCTACGACGGGATT
B20: AGUACAA (DNA:RNA)
RNA: B4 RNA with C26G, A27U, G28A, U30A
DNA 1: CAATCTGAATTCCGGTCTCCC
DNA 2: TGGTGGCTACGACGGGATT
B21: CUCCAGG (DNA:RNA)
RNA: B1 RNA with U29A, C30G, C31G
DNA 1: CAATCTGAATTCCGGTCTCCC
DNA 2: TGGTGGCTACGACGGGATT
B22: GGGGGCA (DNA:RNA)
RNA: B4 RNA with A25G, C26G, A27G, C29G, U30C
DNA 1: CAATCTGAATTCCGGTCTCCC
DNA 2: TGGTGGCTACGACGGGATT
B23: CUGCGGA (DNA:RNA)
RNA: B1 RNA with C27G, U29G, C30G, C31A
DNA 1: CAATCTGAATTCCGGTCTCCC
DNA 2: TGGTGGCTACGACGGGATT
B24: AGCCAGG (DNA:RNA)
RNA: B1 RNA with C25A, U26G, U29A, C30G, C31G
DNA 1: CAATCTGAATTCCGGTCTCCC
DNA 2: TGGTGGCTACGACGGGATT
B25: GAAUUCC (DNA:RNA)
RNA: B1 RNA with C25G, U26A, C27A, C28U
DNA 1: CAATCTGAATTCCGGTCTCCC
DNA 2: TGGTGGCTACGACGGGATT
B26: AACACAG (DNA:RNA)
RNA: B4 RNA with C26A, A27C, G28A, U30A, A31G
DNA 1: CAATCTGAATTCCGGTCTCCC
DNA 2: TGGTGGCTACGACGGGATT
B27: CGAUCCA (DNA:RNA)
RNA: B4 RNA with A25C, C26G, G28U, U30C
DNA 1: CAATCTGAATTCCGGTCTCCC
DNA 2: TGGTGGCTACGACGGGATT
B28: AUGCAAC (DNA:RNA)
RNA: B1 RNA with C25A, C27G, U29A, C30A
DNA 1: CAATCTGAATTCCGGTCTCCC
DNA 2: TGGTGGCTACGACGGGATT
B29: CUAGGCA (DNA:RNA)
RNA: B4 RNA with A25C, C26U, C29G, U30C
DNA 1: CAATCTGAATTCCGGTCTCCC
DNA 2: TGGTGGCTACGACGGGATT
B30: UGCCAUU (DNA:RNA)
RNA: B1 RNA with C25U, U26G, U29A, C30U, C31U
DNA 1: CAATCTGAATTCCGGTCTCCC
DNA 2: TGGTGGCTACGACGGGATT
B31: GGGCUAU (DNA:RNA)
RNA: B1 RNA with C25G, U26G, C27G, C30A, C31U
DNA 1: CAATCTGAATTCCGGTCTCCC
DNA 2: TGGTGGCTACGACGGGATT

Molecular target: T1, RBFOX1 RRM
Test: EMSA; HiTS-Eq, 1 nM pool, 10 min; buffer printed only for the single-RNA assays: 10 mM Tris pH 7.5, 150 mM NaCl, 3.4 mM EDTA, 0.001% NP-40, 30 C
Details: tags: His6 N-terminal (pET28a); label: 5' 32P
In short: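 Purified RbFox RRM (wild type or mutant) was equilibrated for 10 min in 50 µL with 1 nM of a 5′-radiolabelled pool of RNA with 7 randomized nucleotides, its flanks annealed to DNA oligonucleotides, across increasing protein concentrations. Free RNA was separated by 8% native PAGE, excised, reverse-transcribed, PCR-barcoded and sequenced on an Illumina HiSeq 2500. Relative association constants came from read-count changes of each variant against the control reaction, normalised to the cognate motif.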

Point of comparison: B27, binding signal 0.00223 KA relative to UGCAUGU. Against it:
- B1 — higher, 0.00557 KA relative to UGCAUGU
- B2 — higher, 0.0075 KA relative to UGCAUGU
- B3 — higher, 0.0081 KA relative to UGCAUGU
- B4 — lower, 0.001 KA relative to UGCAUGU
- B5 — higher, 0.00318 KA relative to UGCAUGU
- B6 — higher, 0.00756 KA relative to UGCAUGU
- B7 — lower, 0.00163 KA relative to UGCAUGU
- B8 — higher, 0.0215 KA relative to UGCAUGU
- B9 — lower, 0.000298 KA relative to UGCAUGU
- B10 — higher, 0.00544 KA relative to UGCAUGU
- B11 — higher, 0.0112 KA relative to UGCAUGU
- B12 — higher, 0.0145 KA relative to UGCAUGU
- B13 — higher, 0.0186 KA relative to UGCAUGU
- B14 — higher, 0.0144 KA relative to UGCAUGU
- B15 — higher, 0.00405 KA relative to UGCAUGU
- B16 — higher, 0.0131 KA relative to UGCAUGU
- B17 — higher, 0.0188 KA relative to UGCAUGU
- B18 — higher, 0.00999 KA relative to UGCAUGU
- B19 — higher, 0.0026 KA relative to UGCAUGU
- B20 — lower, 0.00158 KA relative to UGCAUGU
- B21 — higher, 0.00898 KA relative to UGCAUGU
- B22 — higher, 0.0303 KA relative to UGCAUGU
- B23 — higher, 0.0128 KA relative to UGCAUGU
- B24 — higher, 0.0168 KA relative to UGCAUGU
- B25 — lower, 0.00183 KA relative to UGCAUGU
- B26 — higher, 0.00255 KA relative to UGCAUGU
- B28 — higher, 0.00789 KA relative to UGCAUGU
- B29 — higher, 0.0123 KA relative to UGCAUGU
- B30 — higher, 0.0092 KA relative to UGCAUGU
- B31 — higher, 0.00586 KA relative to UGCAUGU

Source: publication PMC9911399, “Two distinct binding modes provide the RNA-binding protein RbFox with extraordinary sequence specificity”
